Screen size: about 310,000 compounds; about 2,200 (0.71%) showed an effect of 50% or more. Effects have a minus sign here. The list shows a part of the results.
Each compound was assayed against human ether-à-go-go-related gene (hERG) potassium channel (human, UniProt Q12809) (assay: primary screen, population patch clamp on CHO cells stably expressing hERG).
Sequence of human ether-à-go-go-related gene (hERG) potassium channel (Q12809 whole entry, looked up): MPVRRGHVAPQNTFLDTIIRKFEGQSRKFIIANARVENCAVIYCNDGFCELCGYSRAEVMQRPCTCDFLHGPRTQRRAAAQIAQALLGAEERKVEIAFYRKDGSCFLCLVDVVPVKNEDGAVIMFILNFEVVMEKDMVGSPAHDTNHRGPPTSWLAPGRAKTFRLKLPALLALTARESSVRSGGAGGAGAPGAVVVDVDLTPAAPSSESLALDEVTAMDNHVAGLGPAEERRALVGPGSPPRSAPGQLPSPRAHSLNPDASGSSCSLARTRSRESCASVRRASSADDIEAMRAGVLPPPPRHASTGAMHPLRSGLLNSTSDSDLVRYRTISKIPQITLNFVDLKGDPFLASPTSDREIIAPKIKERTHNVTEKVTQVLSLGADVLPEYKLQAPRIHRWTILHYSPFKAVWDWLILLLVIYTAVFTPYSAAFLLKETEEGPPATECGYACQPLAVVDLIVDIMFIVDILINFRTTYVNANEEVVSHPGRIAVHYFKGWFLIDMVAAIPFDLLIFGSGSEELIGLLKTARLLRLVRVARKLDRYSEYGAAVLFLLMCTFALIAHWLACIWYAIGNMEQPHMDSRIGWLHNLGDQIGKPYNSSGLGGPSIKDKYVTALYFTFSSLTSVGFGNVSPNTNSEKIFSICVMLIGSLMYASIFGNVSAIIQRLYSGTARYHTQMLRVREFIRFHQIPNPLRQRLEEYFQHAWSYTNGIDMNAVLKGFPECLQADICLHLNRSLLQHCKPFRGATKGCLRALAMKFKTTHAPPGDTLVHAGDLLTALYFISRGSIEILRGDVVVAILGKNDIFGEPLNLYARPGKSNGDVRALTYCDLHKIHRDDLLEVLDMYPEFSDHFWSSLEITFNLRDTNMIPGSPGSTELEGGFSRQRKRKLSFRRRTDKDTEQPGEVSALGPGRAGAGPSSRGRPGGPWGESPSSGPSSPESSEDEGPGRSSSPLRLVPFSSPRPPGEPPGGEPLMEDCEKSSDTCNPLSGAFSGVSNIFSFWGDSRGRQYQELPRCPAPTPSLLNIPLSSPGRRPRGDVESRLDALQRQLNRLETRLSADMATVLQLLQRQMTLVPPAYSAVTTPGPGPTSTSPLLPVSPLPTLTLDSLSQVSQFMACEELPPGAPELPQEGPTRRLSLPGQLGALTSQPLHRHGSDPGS

Row | Compound | hERG current change (%, negative = inhibition) at 1uM
1 | Cc1c(C(=O)N(Cc2ccccc2)Cc2cccs2)cnn1-c1ccc(Cl)cc1 | 14%
2 | CC(=O)C1=C(O)C(=O)N(c2ccc(S(N)(=O)=O)cc2)C1c1ccccc1F (centres unmarked) | 11.4%
3 | COc1cc(S(=O)(=O)NCCCn2ccnc2)ccc1Cl | 25.5%
4 | O=C(CSc1nnc(CNC(=O)c2ccccc2)o1)NCCc1ccccc1 | 10.3%
5 | CCC(CO)NCc1sccc1C (centres unmarked) | 15.3%
6 | COC(=O)C1(C)NC(c2ccc(OC)cc2)C2C(=O)N(c3ccccc3)C(=O)C21 (centres unmarked) | 9.13%
7 | CCC(C)NC(=S)Nc1ccccc1OC (centres unmarked) | 1.64%
8 | O=c1ccn(CCCBr)c(=O)[nH]1 | 19.3%
9 | Cc1ccnc(NC(=O)c2ccc(OCC3CCCO3)cc2)c1 (centres unmarked) | 1.69%
10 | CCOc1ccccc1C(=O)NC(CO)C(=O)O (centres unmarked) | -0.598%
11 | CCCCC(NC(=O)c1cccc(Br)c1)C(=O)O (centres unmarked) | 9.9%
12 | COc1cc(C2C(C#N)=C(N)N(N(C)C)C3=C2C(=O)CCC3)ccc1O (centres unmarked) | 12%
13 | Cc1nc(SCC(=O)N2CCCCCC2)[nH]c(=O)c1C | 18%
14 | COc1cnc(-c2ccccc2)nc1Sc1ccccc1 | 20.5%
15 | CN(C(=O)Nc1ccccc1)n1cnc2ccccc2c1=O | 13.8%
16 | CC(=O)CCC(=O)NC1CCCc2c1cnn2-c1ccc(C(C)(C)C)cc1 (centres unmarked) | 0.428%
17 | C=CCn1c(-c2ccccc2OC)n[nH]c1=S | 15.3%
18 | O=C(CCC(=O)N1CCN(c2ccccn2)CC1)c1ccc(Cl)s1 | 3.83%
19 | N#Cc1c(-c2ccccc2)c(-c2ccccc2)nn(CC(=O)NNC(=O)Nc2ccccc2)c1=O | 21.5%
20 | CCN(CC)S(=O)(=O)c1ccc(/C(O)=C2/C(=O)C(=O)N(CCOC)C2c2ccccc2)cc1 (centres unmarked) | 11.6%
21 | CC(=O)NCC1=C(NC(C)=O)C2CC1C(C)(C)C2C (centres unmarked) | 12.1%
22 | O=C(NCCN1CCOCC1)c1cc(Br)ccc1Cl | 12.6%

Row | Compound | hERG current change (%, negative = inhibition) at 1uM
23 | CCOc1ccccc1NC(=O)COc1ccc2ccc(=O)oc2c1 | 15.1%
24 | Nc1[nH]n2c(=O)cc(-c3ccccc3)nc2c1N=Nc1ccc(S(N)(=O)=O)cc1 | 11.4%
25 | CCOC(=O)CSc1c(-c2cccs2)[nH]c2ccccc12 | 8.2%
26 | Cn1cc(S(=O)(=O)N2CCc3ccccc32)cc1C(=O)NC1CCCCC1 | 11.1%
27 | O=C(COC(=O)CCNS(=O)(=O)c1cccs1)Nc1cc(C(F)(F)F)ccc1Cl | 1.42%
28 | COc1ccc(S(=O)(=O)NCC(=O)O)cc1C(=O)NC1CCCCC1 | 29%
29 | COc1ccc(O)c(/C=N/NC(=O)c2ccc(N3CCCC3=O)cc2)c1 | 4.17%
30 | CCOc1ccc2nc(N(CCCN(C)C)C(=O)c3ccc(S(=O)(=O)N4CCCC4)cc3)sc2c1.Cl | -18.3%
31 | CC1CCC2(CC1)NC(=O)N(CC(=O)Nc1ccc(N3CCOCC3)cc1)C2=O (centres unmarked) | 7.74%
32 | O=C(N=C1SC2CS(=O)(=O)CC2N1c1cccc(F)c1)C1CC1 (centres unmarked) | 10%
33 | CCCCn1cc([N+](=O)[O-])nc1C | 14.3%
34 | CN(C)C=NCCn1c(N2CCOCC2)nc2c1c(=O)n(C)c(=O)n2C.Cl | 5.64%
35 | CCOC(=O)C1=C(N)N(c2ccccc2)C2=C(C(=O)CCC2)C1c1cccnc1 (centres unmarked) | 2.28%
36 | CC(O)C(NC=C1C(=O)OC(C)(C)OC1=O)C(=O)O (centres unmarked) | 12.4%
37 | O=C(CN1CCN(S(=O)(=O)c2ccccc2)CC1)Nc1ccc2c(c1)OCO2 | 1.86%
38 | COC(=O)CN(C#N)c1nc(OC)nc(N(C)C)n1 | 4.04%
39 | Cc1ccc(-c2onc(C)c2C)cc1S(=O)(=O)N1CCOc2ccccc21 | 11.9%
40 | CCNC(=O)NC(=O)C(C)OC(=O)c1oc2ccc(OCC)cc2c1C (centres unmarked) | 2.17%
41 | CCC(C)(C)NC(=O)CN(C(=O)CCC(=O)Nc1nccs1)c1cccc(C)c1C | 11.2%
42 | N#CCC(=O)Nc1ccc(C(=O)OCC(=O)N(C2CCCCC2)C2CCCCC2)cc1 | 12%
43 | Cc1cccc(C)c1NC(=O)C1CC(=O)N(C(C)C)C1 (centres unmarked) | -6.09%
44 | COc1ccc(OC)c(S(=O)(=O)N2CCC(C(=O)Nc3cccc(C)c3)CC2)c1 | -2.34%
